PubChem BioAssay AID686978 (National Center for Advancing Translational Sciences (NCATS), 2013)
Where “and” joins values, the source holds several entries; their conditions need not be identical. Equal entries are not always repeated. Out of some 420,000 compounds screened, about 64,000 (15%) were called active. Inconclusive results, whose numbers are uncertain, are shown with a selection of clear calls. The call rests on the fitted dose curve; in most records, active means well fitted inhibition curve with a large enough effect; inconclusive means small, poorly fitted or top-dose-only effect; inactive means flat fitted curve, though single readings scatter. Where the call is inconclusive, the potency comes from a doubtful curve fit. Where a structure was tested more than once in an assay, its records may differ in their call.
On the % scale 0 is the no-effect control and ±100 the full control effect; potency means the concentration at half of the fitted maximal effect; tags describe the fitted curve by direction and shape.

Experiment: qHTS for Inhibitors of human tyrosyl-DNA phosphodiesterase 1 (TDP1): qHTS in cells in absence of CPT; further: nearly all actives have a fitted effect of over 55% in size
Details: DT40 Tdp1-/- hTDP1 cells, no CPT, ATP luminescence, 48 h; activity change, negative = growth inhibition: at 46.2 µM (top of the series) unless noted
Summary of the method: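 Luminescent ATP content (CellTiter-Glo) served as the growth readout. Knockout chicken DT40 cells expressing human TDP1 were exposed to compounds without camptothecin for a minimum 48 hr at 37 °C.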
For O=C(NCc1ccco1)c1ccccc1NS(=O)(=O)c1ccc(Cl)s1, the Potency was inconclusive: 18.4 µM [inhibitor, single point]. With COc1ccc(CN(C)C(=O)c2ccc(OCC(=O)Nc3cccc(C(F)(F)F)c3)c(OC)c2)c(OC)c1 the Potency was inconclusive: 18.4 µM [inhibitor, single point]. With O=C(O)/C=C/c1cn(-c2ccccc2)nc1-c1cc2ccccc2o1 the Potency was inconclusive: 32.6 µM [inhibitor, single point]. For CC(=O)CCC(=O)N1CCCC(CNC(=O)c2ccc(-c3ccccc3)cc2)C1 (configuration not stated), the Potency was inconclusive: 20.6 µM [inhibitor, single point]. For CCOC(=O)c1sc2ncnc(NCC(c3cccs3)N(C)C)c2c1C (configuration not stated), the Potency was inconclusive: 29.1 µM [inhibitor, single point]. In the case of Cc1n[nH]c(C)c1S(=O)(=O)N(CC(=O)Nc1ccc(C(F)(F)F)cc1)c1ccc(C(C)C)cc1, the Potency is reported as inconclusive: 16.4 µM [inhibitor, single point]. In the case of CCn1c2ccccc2c2cc(CC(N)=O)ccc21, the “activity change, negative = growth inhibition” value is reported as inactive: -5.1%. With Cc1cc(Nc2ccc(Cl)cc2)nc(-c2ccccc2O)n1 the Potency was active: 25.9 µM. With Cc1ccccc1Nc1c(-c2ccco2)nc2c(C)cccn12 the Potency was active: 20.6 µM. For CN(C(=O)CN1C(=O)/C(=C/c2ccccc2Cl)SC1=S)C1CCS(=O)(=O)C1 (configuration not stated), the Potency was inconclusive: 29.1 µM [inhibitor, single point]. In the case of CCOC(=O)N1CCN(C(=O)c2ccccc2Oc2ccccc2)CC1, the Potency is reported as inconclusive: 23.1 µM [inhibitor, single point]. In the case of COc1ccc(C(=O)Cc2cnn(-c3ccccc3)c2)c(O)c1, the Potency is reported as inconclusive: 5.17 µM [inhibitor, single point]. In the case of COc1ccc(C2=C/C(=C\c3cccc(OC(C)=O)c3)C(=O)O2)cc1, the Potency is reported as inconclusive: 14.6 µM [inhibitor, single point]. In the case of Cc1ccc(NC(=O)CCS(=O)(=O)c2cccc3nonc23)cc1Cl, the Potency is reported as inconclusive: 5.17 µM [inhibitor, full curve, poor fit] and inconclusive: 23.1 µM [inhibitor, single point]. With O=C(Nc1cc(S(=O)(=O)N2CCOCC2)ccc1N1CCCCC1)c1ccc(Cl)cc1 the Potency was active: 13 µM. With N#Cc1c(-c2cccc(F)c2)cc(-c2ccccc2)nc1Br the Potency was inconclusive: 10.3 µM [inhibitor, partial curve]. For CC1CCCCN1S(=O)(=O)c1ccc(C(=O)Nc2sc3c(c2C(N)=O)CC(C)(C)NC3(C)C)cc1 (configuration not stated), the Potency was inconclusive: 29.1 µM [inhibitor, single point]. With Cn1cccc1C(=O)N1CCC2(CC1)CCN(c1ccccc1)CC2 the Potency was inconclusive: 20.6 µM [inhibitor, single point]. In the case of CCNC(=O)N1CCCC(C(=O)c2ccc(OC)c(OC)c2)C1 (configuration not stated), the “activity change, negative = growth inhibition” value is reported as inactive: -15%. In the case of COc1cccc(-c2cnc3cccnn23)c1, the Potency is reported as inconclusive: 18.4 µM [inhibitor, single point]. In the case of COc1ccc(Cc2nnc(Nc3ccccc3)s2)cc1Br, the Potency is reported as inconclusive: 18.4 µM [inhibitor, single point]. For COCCN(CCOC)Cc1cc(=O)oc2cc(C)c(Cl)cc12, the Potency was inconclusive: 18.4 µM [inhibitor, partial curve]. With COc1ccc(/C=C/c2cc(-c3ccc(C)cc3)o[n+]2C)cc1 the Potency was active: 0.259 µM. For Cc1ccc(-c2noc(/C=C/c3ccccc3)n2)cc1, the “activity change, negative = growth inhibition” value was inactive: -12.3%. For CCc1nc2c(OCc3ccc(F)cc3)cccn2c1N(C)C(=O)c1ccncc1, the “activity change, negative = growth inhibition” value was inactive: -28.6%. In the case of O=S1(=O)c2ccccc2N(Cc2cccc(C(F)(F)F)c2)c2ccccc21, the Potency is reported as inconclusive: 18.4 µM [inhibitor, single point]. For O=C(Nc1nn[nH]n1)c1ccc(S(=O)(=O)N2CCCCC2)cc1, the “activity change, negative = growth inhibition” value was inactive: 1.3%. In the case of CCCCN(CCCC)CCNC(=O)Cn1nc(CC)n2c(cc3sc(C)cc32)c1=O, the Potency is reported as active: 16.4 µM. With O=c1c2c3c(sc2n(CCN2CCCCC2)c(=O)n1Cc1ccco1)CCCCC3 the Potency was active: 17.8 µM. In the case of O=C(Cc1ccccc1)N/N=C/c1ccc(Cl)cc1Cl, the Potency is reported as inconclusive: 29.1 µM [inhibitor, single point]. In the case of Cc1cccc(NC(=O)Cn2c(=O)n(CCCS(=O)(=O)C3CCCCC3)c(=O)c3ccccc32)c1, the Potency is reported as inconclusive: 20.6 µM [inhibitor, single point]. For CCOC(=O)/C(C#N)=C/c1c(N2CCN(Cc3ccc4c(c3)OCO4)CC2)nc2c(C)cccn2c1=O, the Potency was inconclusive: 11.6 µM [inhibitor, partial curve]. With COc1ccc(CCNC(=O)c2c(O)nc3c(C)cccn3c2=O)cc1 the Potency was inconclusive: 29.1 µM [inhibitor, single point]. With COc1ccc(C(=O)N2c3ccccc3C(C)(c3ccc(Cl)cc3)CC2(C)C)cc1 (configuration not stated) the Potency was active: 16.4 µM. In the case of O=C(Cc1ccc(Br)cc1)N/N=C/c1cccnc1, the “activity change, negative = growth inhibition” value is reported as inactive: -4.7%. For Cc1n[nH]c(C)c1S(=O)(=O)N1CCCC(C(=O)NC2CCCCC2)C1 (configuration not stated), the “activity change, negative = growth inhibition” value was inactive: -16.1%. In the case of Clc1ccc(-c2cc3ccccc3nc2N2CCCC2)cc1, the Potency is reported as active: 18.4 µM. With N#Cc1nc(-c2ccc(OCc3ccccc3)cc2)oc1N1CCC(C(N)=O)CC1 the Potency was “inactive and inconclusive: 5.8 µM [inhibitor, full curve]”. In the case of S=C1SCN(Cc2ccccc2)CN1Cc1ccccc1, the Potency is reported as inconclusive: 26.6 µM [inhibitor, single point] and inconclusive: 29.1 µM [inhibitor, single point]. In the case of C[C@@H]1CN([C@@H](C)CO)C(=O)c2c(c3ccccc3n2C)-c2ccccc2CO[C@H]1CN(C)S(=O)(=O)c1ccc(C(F)(F)F)cc1, the “activity change, negative = growth inhibition” value is reported as inactive: -15.7%. In the case of c1ccc(Cc2nnc3sc(-c4cccs4)nn23)cc1, the “activity change, negative = growth inhibition” value is reported as inactive: -6.61%. With CC(=O)c1cn(C)c(=O)n(C)c1=O the “activity change, negative = growth inhibition” value was inactive: 6.54%. For O=C(NC(NC(=S)Nc1c(Cl)cc(Cl)cc1Cl)C(Cl)(Cl)Cl)OCc1ccccc1 (configuration not stated), the Potency was active: 16.4 µM. In the case of CCOC(=O)C1=C(C)N=C2SCCC(=O)N2C1c1ccc(C(=O)OC)cc1 (configuration not stated), the Potency is reported as inconclusive: 18.4 µM [inhibitor, single point]. In the case of CCOc1cc(C(=S)N2CCCC2)ccc1OCc1ccccc1, the Potency is reported as inconclusive: 23.1 µM [inhibitor, single point]. With COc1ccc(OC)c(-n2c(=S)[nH]c3cc(C(=O)N(C)Cc4ccccc4)ccc3c2=O)c1 the “activity change, negative = growth inhibition” value was inactive: -4.71%. In the case of CC1=C(C(=O)N(C(C)C)C(C)C)CC(CC(=O)NCCc2ccccn2)C(=O)N1CCCN1CCCC1=O (configuration not stated), the “activity change, negative = growth inhibition” value is reported as inactive: 3.71%. With CC1(C)CC2CC(C)(CN2C(=O)COc2cccc3ccccc23)C1 (configuration not stated) the Potency was inconclusive: 23.1 µM [inhibitor, single point]. In the case of COc1ccc(CCNC(=O)c2ccc(NC(=O)CC3SC(N4CCCC4)=NC3=O)cc2)cc1 (configuration not stated), the Potency is reported as inconclusive: 29.1 µM [inhibitor, single point]. In the case of CCO[C@H]1OC(C(=O)N2CCCCCCC2)=C[C@@H](c2ccc(C(F)(F)F)cc2)[C@@H]1CCCO, the Potency is reported as active: 20.6 µM. With CCOC(=O)c1c(-c2cc(OC)c(OC)c(OC)c2)csc1NC(=O)c1ccccc1 the Potency was active: 18.4 µM. With CC(NC(=S)Nc1ccc(OC(F)F)cc1)c1ccc(F)cc1 (configuration not stated) the Potency was active: 16.4 µM. In the case of Oc1cc2c(c(Cl)c1O)CCNC[C@H]2c1ccccc1, the Potency is reported as active: 16.8 µM. In the case of CC(=O)Nc1ccc(NC(=O)C(C)O/N=C/c2cccc([N+](=O)[O-])c2)cc1 (configuration not stated), the Potency is reported as inconclusive: 16.4 µM [inhibitor, single point]. For O=C(N1CCCCCC1)n1c(Cc2ccccc2)nc2ccccc21, the Potency was inconclusive: 25.9 µM [inhibitor, single point]. In the case of Clc1cccc(Cc2c(-c3cccc(Br)c3)nc3ccc(Br)cn23)c1, the Potency is reported as inconclusive: 29.1 µM [inhibitor, single point]. For COC(=O)C1C(=O)OC(C)(C)C1C(C)C(=O)c1ccc(C)cc1C (configuration not stated), the activity change, negative = growth inhibition was inconclusive: -30.5% [inhibitor]. For CCOC(=O)C1=C(COC(=O)Cc2ccc(OC)c(OC)c2)NC(=O)NC1C (configuration not stated), the “activity change, negative = growth inhibition” value was inactive: 1.82%. In the case of CN(C)CCNC(=O)Cn1c(=O)c2cccn2c2ccc(F)cc21, the Potency is reported as active: 16.4 µM. For CCc1c(C)nc2ncnn2c1Nc1ccc(C)cc1, the Potency was inconclusive: 16.4 µM [inhibitor, single point]. For O=C(NCCn1cc(SCc2ccc(Cl)cc2)c2ccccc21)c1cccs1, the Potency was inconclusive: 29.1 µM [inhibitor, single point]. In the case of CCOc1ccc2c(c1)OC(c1ccc(OC)cc1)(C(F)(F)F)NC2=O (configuration not stated), the Potency is reported as active: 3.26 µM. For Oc1ccc(Cl)cc1C1=NNC(c2ccc(Cl)cc2)C1 (configuration not stated), the Potency was active: 13 µM. In the case of CCOc1ccc(S(=O)(=O)N(CC(N)=O)c2ccc(C)cc2)cc1, the “activity change, negative = growth inhibition” value is reported as inactive: -24.1%. For Cc1cccc(C)c1OCCNC(=O)OCc1ccccc1, the Potency was inconclusive: 13 µM [inhibitor, partial curve]. With c1ccc(CNc2nc(NCc3cccs3)nc3ccsc23)cc1 the Potency was active: 11.6 µM. For CC(=O)NC1CCC(OC(=O)Nc2ccccc2)CC1 (configuration not stated), the “activity change, negative = growth inhibition” value was inactive: 1.99%. With COc1cccc(Cn2c(CNC(=O)Cc3cccc(C)c3)nc3cccnc32)c1 the Potency was inconclusive: 18.4 µM [inhibitor, partial curve]. In the case of CCNC(C(=O)c1c[nH]c2c(CC)cccc12)c1ccccc1 (configuration not stated), the Potency is reported as inconclusive: 29.1 µM [inhibitor, single point]. In the case of N=c1c2c(-c3ccccc3)c(-c3ccccc3)n(Cc3ccco3)c2ncn1CCCn1ccnc1, the Potency is reported as active: 18.4 µM. For Cc1cccc(OCCCC(=O)N2CCCc3ccccc32)c1C, the “activity change, negative = growth inhibition” value was inactive: -22.1%. In the case of COc1ccc(N(CC(=O)Nc2cccc(Cl)c2C)S(=O)(=O)c2c(C)nn(C)c2C)cc1, the Potency is reported as inconclusive: 29.1 µM [inhibitor, single point].
